# The campaign covered roughly 310,000 compounds. About 14,000 (4.5%) showed an effect of 50% or more. Effects have a minus sign here. This is one part of the list.
# Target: human ether-à-go-go-related gene (hERG) potassium channel (human, UniProt Q12809)
# Experiment: primary screen, population patch clamp on CHO cells stably expressing hERG
# 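Further: peak tail current of the secondary pulse compared with the same well before compound.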
# Chain of human ether-à-go-go-related gene (hERG) potassium channel (Q12809 whole entry, looked up): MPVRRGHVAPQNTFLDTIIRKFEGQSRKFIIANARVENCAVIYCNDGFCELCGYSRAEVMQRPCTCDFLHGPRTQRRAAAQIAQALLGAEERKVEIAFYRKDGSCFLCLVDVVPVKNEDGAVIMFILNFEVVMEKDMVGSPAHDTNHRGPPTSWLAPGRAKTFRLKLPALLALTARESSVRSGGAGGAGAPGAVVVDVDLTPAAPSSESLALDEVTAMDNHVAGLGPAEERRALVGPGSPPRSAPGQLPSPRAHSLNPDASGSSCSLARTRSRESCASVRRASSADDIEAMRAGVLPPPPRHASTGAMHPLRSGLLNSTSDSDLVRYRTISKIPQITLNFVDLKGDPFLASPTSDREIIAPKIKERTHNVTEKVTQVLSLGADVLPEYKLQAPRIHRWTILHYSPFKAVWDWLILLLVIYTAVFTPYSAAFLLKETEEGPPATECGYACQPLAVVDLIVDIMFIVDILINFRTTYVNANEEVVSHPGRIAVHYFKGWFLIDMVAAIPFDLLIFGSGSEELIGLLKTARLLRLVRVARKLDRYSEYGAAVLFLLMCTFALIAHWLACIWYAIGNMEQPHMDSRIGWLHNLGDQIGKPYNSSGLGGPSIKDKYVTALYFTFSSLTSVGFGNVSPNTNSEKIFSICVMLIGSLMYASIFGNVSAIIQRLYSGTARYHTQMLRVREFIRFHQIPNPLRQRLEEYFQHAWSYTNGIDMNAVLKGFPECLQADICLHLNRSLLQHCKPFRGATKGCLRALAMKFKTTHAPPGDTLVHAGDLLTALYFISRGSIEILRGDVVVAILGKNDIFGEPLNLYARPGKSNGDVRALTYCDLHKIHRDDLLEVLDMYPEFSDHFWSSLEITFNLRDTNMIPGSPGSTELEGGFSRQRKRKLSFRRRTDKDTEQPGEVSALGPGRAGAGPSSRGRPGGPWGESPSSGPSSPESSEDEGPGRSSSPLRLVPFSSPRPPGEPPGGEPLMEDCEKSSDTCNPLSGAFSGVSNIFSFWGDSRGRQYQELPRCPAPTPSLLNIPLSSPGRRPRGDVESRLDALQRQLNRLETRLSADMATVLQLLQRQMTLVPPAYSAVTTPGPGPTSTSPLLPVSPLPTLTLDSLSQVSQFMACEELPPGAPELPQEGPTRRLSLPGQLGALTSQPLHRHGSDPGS
row,Structure (SMILES),"hERG current change (%, negative = inhibition) at 10uM [%]"
1,COC(C)(C)c1cc(C(C)(C)C)nc(N)n1,7.95
2,CCCc1cc(C(=O)N(C2CCCCC2)C2CCCCC2)no1,-18.7
3,COc1ccccc1NC(=O)C1=C(C)Nc2nc(CCCO)nn2C1c1cccnc1 (centres unmarked),0.927
4,CC(Nc1nc2ccccc2n2cnnc12)c1ccccc1 (centres unmarked),-32.3
5,COc1ccc(OC)c(CNc2ccc([N+](=O)[O-])cc2C)c1,3.55
6,O=C(Nc1ccc(-c2nc3ncccc3o2)cc1)c1ccc([N+](=O)[O-])o1,2.19
7,CCOCCCNC(=O)C1CC(=O)N(C2CCCC2)C1 (centres unmarked),8.37
8,CCn1c(/C=C/c2ccccc2C)nc2ccccc2c1=O,-10.7
9,COc1ccc2oc(=Nc3cc(F)ccc3F)c(C(N)=O)cc2c1,-1.22
10,CN(c1ccccc1)c1nc(N)c([N+](=O)[O-])c(N2CCCC2)n1,-11.9
11,COc1ccc(NC(=O)CSc2nc(O)cc(=O)n2-c2ccccc2)cc1,12.1
12,CCN1C(=O)NC(=O)/C(=C/c2cc(C)n(-c3sc(C)c(C)c3C#N)c2C)C1=O,-4.66
13,COc1ccc(OCC(=O)NNC(=S)NC(=O)C2CCCCC2)cc1,18.5
14,CCCC(C)NC(=O)C1c2ccccc2Oc2ccccc21 (centres unmarked),14.9
15,Cc1ccc(CSCC(=O)Nc2c(C)n(C)n(-c3ccccc3)c2=O)cc1,32.7
16,COc1ccccc1Nc1nc(Cl)c(C=O)s1,8.17
17,CC(=O)n1c2ccccc2c2ccccc21,4.56
18,COc1ccc(-c2cc(C)no2)cc1S(=O)(=O)Nc1ccccc1,13.6
19,CCc1ccc(S(=O)(=O)NCCc2cn3ccccc3n2)s1,-29.5
20,CCOc1ccc(S(=O)(=O)NCc2cccnc2)cc1,15.5
21,O=C(NC1CC1)C1CCN(c2ncnc3c2sc2cccc(F)c23)CC1,-52
22,N#CC(C#N)=Cc1cccn1-c1ccc(S(N)(=O)=O)cc1,9.19
23,Cc1cccc(NC2(C(F)(F)F)N=C3SCCN3C2=O)n1 (centres unmarked),5.6

row,Structure (SMILES),"hERG current change (%, negative = inhibition) at 10uM [%]"
1,O=C(c1ccccc1Cl)N1N=C(c2ccc(Br)cc2)CC1c1nc2ccccc2[nH]1 (centres unmarked),-7.26
2,Cc1ccccc1NC(=O)C1CCCN1/C=C/C(=O)C(F)(F)F (centres unmarked),-6.9
3,CN(C)S(=O)(=O)c1ccc(C(=O)N(c2ccccn2)c2ccccn2)cc1,4.26
4,CCCCN(CC)CCNC(=O)Cn1cnc2sc(C)c(S(=O)(=O)N3CCOCC3)c2c1=O,0.792
5,c1cncc(CSc2ccc(-c3cccs3)nn2)c1,-10.7
6,COc1ccc(NC(=O)CCl)cn1,18.2
7,CCCCn1c(SCC(=O)Nc2sc3c(c2C(N)=O)CCC3)nnc1-c1ccccc1,-12.6
8,Cc1ccc(-n2c(CSc3nc(C)cc(C)n3)n[nH]c2=S)cc1,11.5
9,Cc1ccc(C)n1Cc1ccc(C(=O)O)cc1,12.3
10,N#Cc1ccc(C(=O)NC2CCCc3ccccc32)cc1 (centres unmarked),-52.8
11,Clc1ccc(-[n+]2c(-c3cccc(Br)c3)[nH]c3nc4ccccc4nc32)cc1,13.5
12,O=C(NN(CC(O)COc1ccccc1)CC(O)COc1ccccc1)c1ccccc1 (centres unmarked),-66.1
13,CCCc1c(C(=O)Nc2ccc(F)cc2C)cnn1-c1ccccc1,-8.15
14,O=C(Nc1cccn(Cc2ccccc2Cl)c1=O)NC1CCCCC1,-20.9
15,CCOC(=O)c1c(S(=O)(=O)N2CCCC2)c(C)n(C)c1C,16.7
16,CN(C)CCNC(=O)c1scc2c1CCCC2.Cl,6.77
17,COc1ccc(C)cc1S(=O)(=O)N1CCC(C)CC1,-22.3
18,Cc1cc2c(N=O)c(NO)ccc2[nH]1,1.52
19,C#CCOCCOCCOCCNc1nc(N2CCN(C(=O)[C@H](CCCCN)n3cc([C@@H](N)CC(C)C)nn3)CC2)nc(N2CCN(C(=O)[C@H](Cc3cc4ccccc4[nH]3)n3cc([C@@H](N)Cc4ccc(O)cc4)nn3)CC2)n1.Cl,10.6
20,CCN(CC)c1cccc(OC2=NS(=O)(=O)c3ccccc32)c1,6.79
21,O=C(CCl)N=c1sccn1Cc1ccccc1Cl,-5.61
22,COC(=O)c1ccc(NC(=O)c2cccc(NC(=O)c3ccccc3)c2)cc1,20.5
23,Cc1ccc(C2CC2C(=O)NNC(=S)Nc2cccc(Cl)c2)cc1 (centres unmarked),-4.44

row,Structure (SMILES),"hERG current change (%, negative = inhibition) at 10uM [%]"
1,COc1cc(/C=C/C(=O)O)cc(S(=O)(=O)N(CC(C)C)CC(C)C)c1OC,24.3
2,COc1ccc(Cc2nnc(SCC(=O)c3ccc4c(c3)NC(=O)CO4)o2)cc1,-2.42
3,CC(C)c1ccc2nc3sc(C(=O)N4CCc5ccccc5C4)c(N)c3cc2c1,-0.273
4,COc1cc2[nH]c(=S)nc(NCc3cccnc3)c2cc1OC,11.5
5,CC(NC(=S)Nc1ccc([N+](=O)[O-])cc1)c1ccncc1 (centres unmarked),-19.1
6,Cc1ccsc1C(=O)N1CCC(N2CCC(C(=O)NCC3CCCO3)CC2)CC1 (centres unmarked),26.8
7,Cc1ccc(C(=O)NNC(=O)CSc2nnc(-c3ccncc3)n2-c2ccc(C)cc2)cc1,-51.4
8,CCCOc1ccc(OCCOCCNCc2ccccc2)cc1.O=C(O)C(=O)O,-45.2
9,C[C@]12CCC3C(CCC4=CC(O)CC[C@@]43/C=N/O)C1(O)CCC2C1=CC(=O)OC1 (some centres unmarked),4.94
10,COc1ccc(-c2nc(CS(=O)CC(=O)NCc3ccccn3)c(C)o2)cc1 (centres unmarked),6.44
11,CC1(C)Cc2ccccc2-c2nc(NCCO)n(-c3ccccc3)c(=O)c21,-30.1
12,CC(=O)Nc1c(O)[nH]c2ccccc12,5.66
13,CCCCn1c(N)c(N(CC)C(=O)c2c(CC)noc2C)c(=O)[nH]c1=O,8.12
14,CC1CC(C)CN(C(=O)CCc2ccccc2)C1 (centres unmarked),-2.16
15,COc1cc(NC(=O)Cc2ccccc2)cc(OC)c1,-4.79
16,O=C(Nc1c(C(=O)N2CCN(c3ccccn3)CC2)oc2ccccc12)c1cccc([N+](=O)[O-])c1,-48.8
17,COc1ccc(S(=O)(=O)N2N=C(c3ccc(NS(C)(=O)=O)cc3)CC2c2ccco2)cc1 (centres unmarked),-74.2
18,Cc1nc(C)c(C(=O)Nc2nc3c(C)cccc3s2)o1,-5.72
19,COC(=O)CNC(=O)c1cn(-c2ccc(C)c(C)c2)c(=O)c2ccccc12,1.1
20,COc1ccccc1C1=CC(=O)CC(C)(C)C1=O,-1.87
21,COC(=O)C(C)N(c1ccc(OC)cc1)S(C)(=O)=O (centres unmarked),19.8
22,CCN(CC)CCNC(=S)Nc1ccc2nc(N3CCCC3)cc(C)c2c1,-8.93
23,Cc1cc(C(=O)N/N=C/c2c(C)nn(-c3ccccc3)c2Cl)n[nH]1,-5.08

row,Structure (SMILES),"hERG current change (%, negative = inhibition) at 10uM [%]"
1,Cc1ccc(NC(=O)CCn2c(=O)c3cccn3c3ccccc32)cc1C,17.4
2,O=C(Nc1nc(-c2ccc(F)cc2)cs1)c1cnccn1,-0.514
3,Cc1ccc(C(=O)Nc2ccc3c(c2)OCCO3)cc1,9.56
4,COc1ccc(NS(=O)(=O)c2cccc(C(=O)NCC(c3ccc(OC)cc3)N3CCCC3)c2)cc1 (centres unmarked),-46.7
5,Cc1ccccc1C(=O)NCC(=O)NCC1(N2CCOCC2)CCCCC1,-25.7
6,c1cn2c(NC3CCCC3)c(-c3ccc(N4CCOCC4)cc3)nc2cn1,-12.8
7,CC/C(=N/Nc1ccccc1Cl)c1cnnc(-c2ccccc2)n1,-18
8,Cc1cc2c(ncn2C)c(NS(=O)(=O)c2ccccc2Cl)c1C,-15.7
9,CC(C)(C)C(=O)NC(=S)N1CCCC1,5.68
10,O=C(c1cc([N+](=O)[O-])ccc1N1CCCCC1)N1CCCC1,-11
11,COc1ccc(C(=O)Nc2ccccc2C(=O)N2CCOCC2)cc1Br,-17.3
12,Cc1ccc(N(C)S(=O)(=O)c2ccc(-c3cnc(C4CC4)o3)cc2)cc1,8.38
13,Cc1nc2ccccc2c2oc(C(=O)NCCN3CCCCC3C)cc12 (centres unmarked),-7.43
14,Cn1c(=O)c([N+](=O)[O-])c(NCc2ccccc2Cl)c2ccccc21,-11.7
15,Cl.O=C(c1ccco1)N1CCN(CCCCOc2ccc(F)cc2)CC1,-74.4
16,c1ccc2[nH]c(SCc3cn4cccnc4n3)nc2c1,0.131
17,COc1cc2c(cc1OC)C1=C(C#N)COCN1CC2,7.69
18,CS(=O)(=O)N(CC(=O)Nc1ccc(S(=O)(=O)N2CCCC2)cc1)c1ccccc1F,0.317
19,Cc1ccc(C(=O)Nc2ccon2)cc1S(=O)(=O)N1CCCC1,-23
20,NC(=O)C1CCN(C(=O)c2ccc3c(=O)n(Cc4ccco4)c(SCC(=O)c4ccc(F)cc4)nc3c2)CC1,5.19

# Reference: article PMC4336329 (PLoS ONE, 2015)
